Measured values: publication PMC4907068, “Phosphatase ABI1 and okadaic acid-sensitive phosphoprotein phosphatases inhibit salt stress-activated SnRK2.4 kinase” (BMC Plant Biology, 2016)
Results are given in words; binding and its absence hold for the method and conditions named. For part of these data: In cells and extracts the contact can be indirect. Some binding calls cover weakened binding; strength is not graded here. For part of these data: Where a sequence is shown, tags or fusion partners need not be part of it. Values belong to the molecule of their own block, whether it stands above or below them.

Sequences of proteins named here, by UniProt entry; tags and fusion partners are left off.
UniProt O04719: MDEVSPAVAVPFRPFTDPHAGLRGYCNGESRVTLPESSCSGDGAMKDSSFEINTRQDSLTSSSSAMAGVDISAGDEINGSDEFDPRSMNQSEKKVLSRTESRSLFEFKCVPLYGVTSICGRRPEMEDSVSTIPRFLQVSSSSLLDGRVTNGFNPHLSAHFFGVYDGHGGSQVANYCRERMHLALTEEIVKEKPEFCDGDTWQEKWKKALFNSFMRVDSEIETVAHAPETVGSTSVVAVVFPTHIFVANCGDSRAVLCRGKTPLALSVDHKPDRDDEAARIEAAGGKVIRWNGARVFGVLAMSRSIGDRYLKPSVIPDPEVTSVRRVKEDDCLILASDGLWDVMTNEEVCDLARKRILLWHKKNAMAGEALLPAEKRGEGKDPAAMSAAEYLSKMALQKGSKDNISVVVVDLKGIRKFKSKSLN

Legend:
[1] = target: T1, SnRK2.8 in fusion with the Gal4 DNA-binding domain (Arabidopsis thaliana) (UniProt Q9M9E9); experiment: two-hybrid; AH109 yeast; SnRK2s in pGBT9 (Gal4 DNA-binding domain), PP2C phosphatases in pGAD424 (Gal4 activation domain); growth on SD without Leu/Trp/His with 1 mM - 10 mM 3-AT or SD without Leu/Trp/Ade
T1 sequence: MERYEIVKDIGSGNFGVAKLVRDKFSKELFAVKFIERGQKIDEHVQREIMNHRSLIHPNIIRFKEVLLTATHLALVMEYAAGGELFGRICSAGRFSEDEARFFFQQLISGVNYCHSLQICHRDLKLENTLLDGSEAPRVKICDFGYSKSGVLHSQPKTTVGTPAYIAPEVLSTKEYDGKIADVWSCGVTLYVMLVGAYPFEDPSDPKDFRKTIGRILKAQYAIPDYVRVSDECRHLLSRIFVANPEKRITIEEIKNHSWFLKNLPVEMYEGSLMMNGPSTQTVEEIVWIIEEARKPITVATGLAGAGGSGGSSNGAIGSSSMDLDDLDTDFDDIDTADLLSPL

[2] = target: T2, SnRK2.4 in fusion with the Gal4 DNA-binding domain (Arabidopsis thaliana) (UniProt P43291); experiment: as above
T2 sequence: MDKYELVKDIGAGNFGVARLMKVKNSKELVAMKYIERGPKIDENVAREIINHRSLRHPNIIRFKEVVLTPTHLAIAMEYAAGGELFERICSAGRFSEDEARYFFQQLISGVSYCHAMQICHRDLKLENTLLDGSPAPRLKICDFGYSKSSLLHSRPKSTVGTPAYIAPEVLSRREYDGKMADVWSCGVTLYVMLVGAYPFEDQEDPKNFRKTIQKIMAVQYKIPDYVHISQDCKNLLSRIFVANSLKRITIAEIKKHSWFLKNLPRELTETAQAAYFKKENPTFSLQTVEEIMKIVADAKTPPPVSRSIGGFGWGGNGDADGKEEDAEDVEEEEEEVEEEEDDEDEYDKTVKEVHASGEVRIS

[3] = target: T3, SnRK2.6 in fusion with the Gal4 DNA-binding domain (Arabidopsis thaliana) (UniProt Q940H6); experiment: as above
T3 sequence: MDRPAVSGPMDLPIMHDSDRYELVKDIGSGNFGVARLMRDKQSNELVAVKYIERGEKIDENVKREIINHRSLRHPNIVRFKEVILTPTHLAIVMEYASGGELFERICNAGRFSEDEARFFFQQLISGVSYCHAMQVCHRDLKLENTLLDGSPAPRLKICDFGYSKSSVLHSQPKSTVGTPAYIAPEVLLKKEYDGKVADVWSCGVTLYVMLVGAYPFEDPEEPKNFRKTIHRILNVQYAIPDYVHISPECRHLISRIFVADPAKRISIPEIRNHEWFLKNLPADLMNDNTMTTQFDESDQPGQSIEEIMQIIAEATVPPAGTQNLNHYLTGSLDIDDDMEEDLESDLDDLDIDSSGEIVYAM

[4] = target: T4, nEYFP-SnRK2.8 (Arabidopsis thaliana) (UniProt Q9M9E9); experiment: split reporter; BiFC with complementary non-fluorescent fragments of EYFP, transiently co-expressed in Arabidopsis leaf protoplasts; confocal microscopy 16 h after transformation
T4 sequence: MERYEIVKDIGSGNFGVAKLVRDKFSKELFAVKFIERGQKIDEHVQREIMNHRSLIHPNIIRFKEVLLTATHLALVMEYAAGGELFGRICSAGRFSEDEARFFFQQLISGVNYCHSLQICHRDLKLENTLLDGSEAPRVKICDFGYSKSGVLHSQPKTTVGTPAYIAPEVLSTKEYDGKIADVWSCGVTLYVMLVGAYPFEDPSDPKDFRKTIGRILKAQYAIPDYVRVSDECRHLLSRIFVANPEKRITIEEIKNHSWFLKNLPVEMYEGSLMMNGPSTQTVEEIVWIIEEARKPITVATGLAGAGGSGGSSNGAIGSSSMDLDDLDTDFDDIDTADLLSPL

[5] = target: T5, nEYFP-SnRK2.6 (Arabidopsis thaliana) (UniProt Q940H6); experiment: as above
T5 sequence: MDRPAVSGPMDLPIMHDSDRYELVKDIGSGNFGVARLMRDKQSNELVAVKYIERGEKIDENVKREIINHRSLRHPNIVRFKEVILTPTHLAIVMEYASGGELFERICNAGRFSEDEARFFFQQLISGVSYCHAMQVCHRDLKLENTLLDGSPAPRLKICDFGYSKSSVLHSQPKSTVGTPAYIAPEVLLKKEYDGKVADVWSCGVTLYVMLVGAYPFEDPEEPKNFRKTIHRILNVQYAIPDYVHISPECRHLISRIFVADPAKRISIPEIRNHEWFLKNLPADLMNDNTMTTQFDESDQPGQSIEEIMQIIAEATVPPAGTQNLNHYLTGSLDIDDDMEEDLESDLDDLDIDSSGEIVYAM

[6] = target: T6, nEYFP-SnRK2.4 (Arabidopsis thaliana) (UniProt P43291); experiment: as above
T6 sequence: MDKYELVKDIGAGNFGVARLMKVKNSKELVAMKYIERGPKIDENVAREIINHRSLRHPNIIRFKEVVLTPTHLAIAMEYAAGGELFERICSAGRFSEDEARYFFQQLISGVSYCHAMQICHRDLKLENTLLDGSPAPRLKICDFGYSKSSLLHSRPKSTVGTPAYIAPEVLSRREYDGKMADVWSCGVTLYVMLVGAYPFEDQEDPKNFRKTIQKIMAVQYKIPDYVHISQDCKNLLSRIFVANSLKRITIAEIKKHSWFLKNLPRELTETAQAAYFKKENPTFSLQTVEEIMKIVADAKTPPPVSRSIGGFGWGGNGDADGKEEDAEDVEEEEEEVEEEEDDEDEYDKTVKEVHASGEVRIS

[7] = target: T7, SnRK2.10 in fusion with the Gal4 DNA-binding domain (Arabidopsis thaliana) (UniProt Q9C958); experiment: two-hybrid; AH109 yeast; SnRK2s in pGBT9 (Gal4 DNA-binding domain), PP2C phosphatases in pGAD424 (Gal4 activation domain); growth on SD without Leu/Trp/His with 1 mM - 10 mM 3-AT or SD without Leu/Trp/Ade
T7 sequence: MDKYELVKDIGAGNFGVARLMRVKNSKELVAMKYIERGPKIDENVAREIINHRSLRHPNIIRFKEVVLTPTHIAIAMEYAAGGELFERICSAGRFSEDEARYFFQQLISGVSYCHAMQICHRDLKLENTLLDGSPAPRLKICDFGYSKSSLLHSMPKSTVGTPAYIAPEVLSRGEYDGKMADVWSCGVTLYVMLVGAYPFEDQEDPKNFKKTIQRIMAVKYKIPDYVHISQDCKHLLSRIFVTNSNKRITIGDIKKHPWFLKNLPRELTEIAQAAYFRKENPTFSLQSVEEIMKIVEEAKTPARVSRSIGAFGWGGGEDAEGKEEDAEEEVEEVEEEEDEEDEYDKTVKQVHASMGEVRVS

[8] = target: T8, SnRK2.10 in fusion with the Gal4 DNA-binding domain (Arabidopsis thaliana), Q9C958; experiment: as above; conditions: remark: other sources report otherwise
T8 chain: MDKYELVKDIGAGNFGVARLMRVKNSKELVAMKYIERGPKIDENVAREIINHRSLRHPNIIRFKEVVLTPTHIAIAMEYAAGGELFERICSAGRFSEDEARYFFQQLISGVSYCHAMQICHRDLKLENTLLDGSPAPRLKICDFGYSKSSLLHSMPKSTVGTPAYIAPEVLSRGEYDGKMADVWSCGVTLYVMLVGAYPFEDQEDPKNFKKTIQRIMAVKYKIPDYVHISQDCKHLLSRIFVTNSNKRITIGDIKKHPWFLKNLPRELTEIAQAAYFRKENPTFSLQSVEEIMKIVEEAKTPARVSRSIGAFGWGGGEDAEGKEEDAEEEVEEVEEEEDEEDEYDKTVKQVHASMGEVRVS

- binding [1]: binds
- binding [2]: binds
- binding [3]: binds
Molecule: ABI1 (ABA-insensitive 1) in fusion with the Gal4 activation domain (from UniProt P49597 1-434) (enzyme)

- binding [4]: binds
- binding [5]: binds
- binding [6]: binds
Molecule: ABI1-cEYFP (from UniProt P49597 1-434) (enzyme)

- binding [1]: binds weakly
- binding [7]: no binding
Molecule: ABI2 in fusion with the Gal4 activation domain (from UniProt O04719 1-423) (enzyme)

- binding [8]: no binding
B1: ABI1 (ABA-insensitive 1) in fusion with the Gal4 activation domain, P49597 1-434 (enzyme)
chain: MEEVSPAIAGPFRPFSETQMDFTGIRLGKGYCNNQYSNQDSENGDLMVSLPETSSCSVSGSHGSESRKVLISRINSPNLNMKESAAADIVVVDISAGDEINGSDITSEKKMISRTESRSLFEFKSVPLYGFTSICGRRPEMEDAVSTIPRFLQSSSGSMLDGRFDPQSAAHFFGVYDGHGGSQVANYCRERMHLALAEEIAKEKPMLCDGDTWLEKWKKALFNSFLRVDSEIESVAPETVGSTSVVAVVFPSHIFVANCGDSRAVLCRGKTALPLSVDHKPDREDEAARIEAAGGKVIQWNGARVFGVLAMSRSIGDRYLKPSIIPDPEVTAVKRVKEDDCLILASDGVWDVMTDEEACEMARKRILLWHKKNAVAGDASLLADERRKEGKDPAAMSAAEYLSKLAIQRGSKDNISVVVVDLKPRRKLKSKPLN
